Experimental data: PubChem BioAssay AID1240 (Sanford-Burnham Center for Chemical Genomics, 2008)
About 800 (1.6%) of roughly 50,000 compounds showed an effect of 50% or more. The list shows a part of the results.

target: Bcl-2-like protein 10 (Homo sapiens) (UniProt Q9HD36); experiment: Phenotype converters, Bcl-B/TR3 peptide binding displacement, primary biochemical FP (AID 1240); conditions: GST-Bcl-B / FITC-TR3 peptide fluorescence polarization; stronger effect = higher value; compound at 3.75 mg/L;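 further: 0% = Bcl-B with tracer peptide and DMSO and 100% = tracer peptide lacking Bcl-B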
Sequence of UniProt Q9HD36 (Q9HD36 whole entry, looked up): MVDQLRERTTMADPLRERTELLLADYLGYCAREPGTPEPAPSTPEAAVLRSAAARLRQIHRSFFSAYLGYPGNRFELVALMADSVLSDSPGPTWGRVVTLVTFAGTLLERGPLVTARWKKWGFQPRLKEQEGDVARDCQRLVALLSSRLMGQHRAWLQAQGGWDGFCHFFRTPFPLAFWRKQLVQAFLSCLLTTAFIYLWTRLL

| Structure (SMILES) | displacement [%] |
| --- | --- |
| CC1CCc2c(sc3nc(-c4ccco4)oc(=O)c23)C1 (stereo not drawn) | 0.3 |
| O=C(NN1C(=O)/C(=C/c2c(Cl)cccc2Cl)SC1=S)c1ccncc1 | 6.2 |
| COc1ccc(N=C2NC(=O)/C(=C/c3ccc(Cl)cc3)S2)cc1 | 10.7 |
| O=C1NC(=Nc2ccc(O)cc2)S/C1=C\c1ccccc1 | -2.2 |
| O=C(CSc1nnc(-c2cccs2)n1-c1ccccc1)c1ccc(Cl)cc1 | 0.9 |
| COc1ccc(C/C(O)=C(\C#N)c2nc3ccccc3[nH]2)cc1OC | -2.3 |
| COc1ccc(-c2nc(-c3cccnc3)no2)cc1OC | -11.3 |
| N=c1sc(Cc2cccc3ccccc23)cn1CC(=O)c1ccccc1 | -6.5 |
| COc1ccc(CNC(=O)CN(c2ccc(C)cc2C)S(=O)(=O)c2ccc(C)cc2)cc1 | -2.3 |
| COc1ccccc1NC(=O)C1=C(C)NC(=O)NC1c1ccccc1F (stereo not drawn) | -12.7 |
| Cc1cccc(N2C(=O)C(=O)/C(=C(\O)c3ccccc3)C2c2cccc(F)c2)c1 (stereo not drawn) | 0.2 |
| O=C(/C=C/c1ccccc1)NC(=S)Nc1cccc(-c2nc3ncccc3o2)c1 | 0.8 |
| Cc1ccc(/C=C/C(=O)Nc2ccccc2Br)o1 | 14.2 |
| CCc1cc2c(=O)c(-c3nc4ccccc4n3C)c(C)oc2c(CN2CCOCC2)c1O | 5.7 |
| COc1ccc(CCNS(=O)(=O)c2ccc3ccccc3c2)cc1OC | 3.3 |
| CCOc1ccc(C(=O)Nc2ccc(NC(=O)c3ccccc3)cc2)cc1[N+](=O)[O-] | 12.7 |
| N#C/C(=C\c1ccc(Cl)cc1Cl)C(=O)NCC1CCCO1 (stereo not drawn) | -20.1 |
| COC(=O)C1=C(C)N(c2cc(C)cc(C)c2)/C(=C/c2ccco2)C1=O | 99.6 |
| COCCNC(=O)C(=O)Nc1cccc2ccccc12 | 15.5 |
| COC(=O)c1cc(NC(=O)c2ccc(-c3cccc(Cl)c3C)o2)cc(C(=O)OC)c1 | 7.6 |
| Cc1cccc(N2C(=O)C(=O)/C(=C(\O)c3ccccc3)C2c2ccccc2[N+](=O)[O-])c1 (stereo not drawn) | 1.6 |
| COc1cc(C(=O)N2CCC(Cc3ccccc3)CC2)cc(OC)c1OC | -6.7 |
| Cc1ccc(-c2cc(C(=O)N/N=C/c3ccco3)[nH]n2)cc1 | -8.1 |

| Structure (SMILES) | displacement [%] |
| --- | --- |
| COc1ccc(CCC(=O)Nc2cc(Cl)ccc2OC)cc1 | -1.8 |
| COc1ccccc1-c1coc2c(CN3CCOCC3)c(O)ccc2c1=O | -10.1 |
| CC(C)OP(C)(=O)CN1CCCC1=O (stereo not drawn) | 16.8 |
| CC(=O)Oc1ccc(-c2cccc(C(=O)N3CCCCC3)c2)cc1 | 0.1 |
| Cc1c(N=Cc2ccc3c4c(cccc24)CC3)c(=O)n(-c2ccccc2)n1C | 2.1 |
| Cc1cc(/C=C2\NC(=O)NC2=O)c(C)n1-c1ccc(N(C)C)cc1 | 3.4 |
| Cc1ccc(S(=O)(=O)N(C)CCCC(=O)Nc2cccc(C)c2)cc1 | 7.5 |
| CCOc1ccc(Nc2nc(O)c(C3=c4cc(Br)ccc4=NC3=O)s2)cc1 | -5.8 |
| O=C(N/N=C/c1ccco1)c1cc(C23CC4CC(CC(C4)C2)C3)[nH]n1 | -9.5 |
| CCc1ccc2oc(-c3cccc(NC(=O)c4ccccc4C)c3)nc2c1 | 14 |
| CCOC(=O)C1=C(C)N(CCOC)C(=O)/C1=C\c1ccc(C)cc1 | 44.1 |
| C=CCn1c(SCC(=O)NCCCN2CCOCC2)nc2sc3c(c2c1=O)CCCC3 | 2.5 |
| Cc1ccc(/C=C2\C(=O)NC(=S)N(c3ccc(C)cc3)C2=O)cc1 | 14.6 |
| Cc1cc(C)c(NS(=O)(=O)c2cc([N+](=O)[O-])ccc2Cl)c(C)c1 | 18.6 |
| O=C(Nc1nc2ccc(Cl)cc2s1)c1cccc(F)c1 | 5.1 |
| CCC(C)c1ccc(NC(=O)c2ccc([N+](=O)[O-])cc2)cc1 (stereo not drawn) | 11.6 |
| COc1ccc(C2CC(C(F)(F)F)n3nc(C(=O)N4CCN(c5ccccc5)CC4)c(Cl)c3N2)cc1OC (stereo not drawn) | 0.5 |
| Cc1ccccc1C(=O)N1CCN(c2nc3ccc([N+](=O)[O-])cc3s2)CC1 | 161 |
| COc1ccc(NC(=O)c2cncc(Br)c2)c(OC)c1 | 13.7 |
| CCN(CC)c1ccc(N=Cc2c(C)[nH]c3ccccc23)cc1 | -0.1 |
| CC(=O)Nc1cccc(C(=O)/C=C/c2ccc(/C=C/C(=O)c3cccc(NC(C)=O)c3)cc2)c1 | 10.6 |
| CC1=C(C)CC2C(=O)N(c3ccc(C)c([N+](=O)[O-])c3)C(=O)C2C1 (stereo not drawn) | -8.7 |
| O=C1c2ccc(-c3nc4ccccc4c(=O)o3)cc2C(=O)N1c1ccc(-c2ccc([N+](=O)[O-])cc2)cc1 | -1.3 |

| Structure (SMILES) | displacement [%] |
| --- | --- |
| COc1ccc(Cl)cc1NC(=O)c1cc2nc(-c3ccccc3)cc(C)n2n1 | 7.1 |
| O=C(c1cc(Cl)ccc1Cl)N1CCOCC1 | 8.2 |
| Cc1ccc(C2(c3ccc(C)cc3)CC2C(=O)Nc2cc([N+](=O)[O-])ccc2C)cc1 (stereo not drawn) | 9.4 |
| O=C(NCCCO)C(=O)NCc1ccccc1Cl | 7.3 |
| O=C(O)CCCCCN1C(=O)C(=O)/C(=C(/O)c2ccccc2)C1c1cccc([N+](=O)[O-])c1 (stereo not drawn) | 0 |
| O=C(O)CCC(=O)Nc1ccc2nn(-c3ccccc3)nc2c1 | 3.6 |
| Cc1cc(-c2ccccc2)nc2cc(C(=O)Nc3ccc(Cl)cc3)nn12 | 15.4 |
| O=C(Nc1ccc(F)cc1)Nc1ccccc1C(=O)OCc1ccccc1F | -9.8 |
| CCOc1ccccc1C=Nc1cc(Cl)cc(Cl)c1 | -5.3 |
| Cc1ccc(NCC(=O)N/N=C\c2cc(Cl)cc(Br)c2O)cc1 | 3 |
| O=C(Nc1cccc(O)c1)/C(=C\c1cccs1)NC(=O)c1ccccc1 | 12.1 |
| Cc1cc(C)n(-c2cc(-c3ccccc3)nc(-c3ccc(Br)cc3)n2)n1 | -1.2 |
| CC1(C)CC(=O)c2sc(NC(=O)CSc3nc4ccccc4o3)nc2C1 | -10.6 |
| CCCCOC(=O)C(NC(=O)c1ccccc1)=C(C)C | -2.3 |
| CCCC(NC(=O)c1ccccc1)C(=O)OCC(=O)Nc1sc2c(c1C(=O)OCC)CCCC2 (stereo not drawn) | 3.3 |
| CC(=O)Nc1ccc(-c2ccco2)cc1 | 4.5 |
| CC(=O)Nc1ccc(NC(=O)CSc2ccccn2)cc1 | -2.6 |
| COc1cc(/C=C2\SC(N)=NC2=O)cc(Br)c1OC | -25.9 |
| Cc1ccc(C(C)C)c(OCCNC(=O)CCC2CCCC2)c1 | -6.8 |
| CN(C)CCCNC(=O)COc1ccc(Br)cc1 | -3.8 |
| COc1ccc(C(=O)N2c3ccccc3N(Cc3ccccc3)C(=O)C2(C)C)cc1 | 5.8 |
| Oc1cccc(/C=N\N2CCN(c3ccccc3)CC2)c1 | 0.4 |
